Some of the results follow. The energies were worked out here from pooled read counts, against the library average; single values are noisy.

This assay concerns the target T1, Pho4 (S. cerevisiae) (UniProt P07270).
T1 sequence: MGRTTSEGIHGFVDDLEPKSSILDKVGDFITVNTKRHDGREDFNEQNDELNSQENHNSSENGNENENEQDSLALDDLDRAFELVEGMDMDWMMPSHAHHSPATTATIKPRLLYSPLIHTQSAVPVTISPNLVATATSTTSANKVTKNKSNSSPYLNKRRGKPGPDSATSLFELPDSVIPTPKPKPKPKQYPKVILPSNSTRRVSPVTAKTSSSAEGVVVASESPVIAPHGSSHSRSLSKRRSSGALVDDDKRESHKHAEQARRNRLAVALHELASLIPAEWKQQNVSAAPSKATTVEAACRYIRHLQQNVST
The assay is described as follows: relative binding free energy (BET-seq); higher = weaker binding. The following applies: reference: library average.
In the case of TGTTTCACGTGTTGTG, the “relative binding free energy” value came out at 0.27 kcal/mol.
To AAATTCACGTGGAGGA belongs 0.23 kcal/mol; to CGGTCCACGTGTGTGG, 0.07 kcal/mol; to GAGAGCACGTGTGGTG, 0.03 kcal/mol.
To GTTAGCACGTGACAGG belongs 0.24 kcal/mol; to ATTATCACGTGGTGTC, 0.08 kcal/mol; to GCTCTCACGTGGTGTG, 0.07 kcal/mol.
Under TTATGCACGTGCTTAT stands 0 kcal/mol.
For TTAGGCACGTGCGGTC, the “relative binding free energy” value was -0.17 kcal/mol.
With AAATGCACGTGGAGAG, the “relative binding free energy” value is -0.03 kcal/mol.
As for GCGAGCACGTGTCGGG, the “relative binding free energy” value was -0.07 kcal/mol.
To TGGGTCACGTGGATAG belongs 0.13 kcal/mol; to TGAATCACGTGGGGAA, 0.15 kcal/mol.
Under ATGCTCACGTGTTTGA stands 0.19 kcal/mol; under ATTAACACGTGGGATA, -0.05 kcal/mol.
Under TATGTCACGTGAGTAG stands 0.32 kcal/mol.
Regarding TATTGCACGTGTAGCT, the “relative binding free energy” value was -0.12 kcal/mol.
Under CGGTTCACGTGAGCGT stands 0.36 kcal/mol; under AGGTGCACGTGTGGGT, -0.04 kcal/mol; under CTGGTCACGTGGGCTT, -0.19 kcal/mol.
Under CTGGACACGTGTTTGT stands -0.01 kcal/mol; under TAATGCACGTGATAGT, 0.1 kcal/mol; under AGGTCCACGTGGTTGG, -0.09 kcal/mol.
As to ATGGTCACGTGACTGA, the “relative binding free energy” value is 0.33 kcal/mol.
Under TAGGGCACGTGGCGCT stands -0.31 kcal/mol; under GTATTCACGTGGATCG, 0.3 kcal/mol; under AGTCGCACGTGTGGCG, -0.03 kcal/mol.
To GGGTGCACGTGTAGGA belongs 0.11 kcal/mol.
With TTGTCCACGTGTTCAT, the “relative binding free energy” value turned out to be 0.09 kcal/mol.
To TTAGACACGTGAAGGG belongs 0.32 kcal/mol; to GGAGGCACGTGGGGGC, -0.18 kcal/mol.
Under ACATTCACGTGGTGTT stands 0.05 kcal/mol.
To AGAGCCACGTGGAGGG belongs -0.26 kcal/mol; to CGTCTCACGTGTGGGT, 0.03 kcal/mol; to TGAGCCACGTGGGCTT, -0.13 kcal/mol.
For the sequence AAATCCACGTGTTGTT, the “relative binding free energy” value came to 0.13 kcal/mol.
To TTGTACACGTGTGTAC belongs 0.11 kcal/mol; to TCTTGCACGTGGAAGT, 0.13 kcal/mol; to GAGGTCACGTGGGGGC, 0.02 kcal/mol.
To TAGGGCACGTGGGGCG belongs -0.3 kcal/mol; to TGGGTCACGTGGCTGA, 0.07 kcal/mol; to ATGGGCACGTGAGCTG, 0 kcal/mol.
To GGGTTCACGTGTCTAT belongs 0.17 kcal/mol; to TTTGTCACGTGTAAGG, 0.13 kcal/mol.
With GAGGACACGTGATGTT, the “relative binding free energy” value was found to be 0.16 kcal/mol.
Under GCTTACACGTGTGCGG stands 0.12 kcal/mol; under GTTTGCACGTGTTCAG, 0.03 kcal/mol.
With TTAGACACGTGTGAGT, the “relative binding free energy” value is 0.15 kcal/mol.
Under GAGTTCACGTGAGGGC stands 0.46 kcal/mol; under CTGAACACGTGGTTGG, -0.02 kcal/mol.
Under ATTCTCACGTGTCTTT stands 0.22 kcal/mol.
On to TGAATCACGTGGCATT, for which the “relative binding free energy” value is 0.01 kcal/mol.
Under TGTTCCACGTGGGGCT stands -0.2 kcal/mol; under AGGGACACGTGTGCTA, 0.07 kcal/mol.
Under ATATACACGTGGGTCG stands -0.18 kcal/mol; under TGGTACACGTGTCAGA, 0.12 kcal/mol.
Under GGAGCCACGTGAATGG stands 0.33 kcal/mol.
With TAGACCACGTGGGGTT, the “relative binding free energy” value was -0.06 kcal/mol.
On to CTTGTCACGTGGTTCA, for which the “relative binding free energy” value was 0.05 kcal/mol.
To GGACCCACGTGGGGGT belongs -0.28 kcal/mol; to GGCTGCACGTGAGTGT, 0.26 kcal/mol.
To CGGGGCACGTGCTGAG belongs -0.16 kcal/mol.
Under TTGATCACGTGGGAGT stands 0.12 kcal/mol; under CATGACACGTGATTTG, 0.23 kcal/mol; under TGAGACACGTGGGCGG, 0 kcal/mol.
In the case of GGTCACACGTGAGGAG, the “relative binding free energy” value was determined as 0.29 kcal/mol.
To TGATGCACGTGGTTCG belongs -0.12 kcal/mol; to TGCAGCACGTGTTGGT, -0.1 kcal/mol.
In the case of AGTATCACGTGCGTGT, the “relative binding free energy” value is -0.02 kcal/mol.
To TGTATCACGTGTGCTG belongs 0.24 kcal/mol; to ATTGTCACGTGACTTG, 0.38 kcal/mol.
To ATGGACACGTGGCGGA belongs -0.01 kcal/mol; to CTTGTCACGTGTTGAT, 0 kcal/mol.

The values above are taken from the BET-seq Pho4 binding data (Le et al. 2018).
